Whole data set: some 33,000 sequences, median “E-score (-0.5 to 0.5)” near -0.053, cut for the highest 2% near 0.37. This is one part of the list.
Target: Hap1 (UniProt P0CE41)
Assay: PBM E-score (8-mer binding enrichment) (E-score (-0.5 to 0.5)); higher = stronger / more preferred TF binding; most listed sequences are background and not binding sites
Details: protein concentration: 200 nM; construct: GST-DNA-binding domain
In short: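 GST-tagged yeast TFs (full-length or DNA-binding domain) were made by PURExpress in vitro transcription/translation and applied at about 100-200 nM to universal all-10-mer Agilent arrays. The arrays were made double-stranded by primer extension, on fresh or once-stripped slides. Bound protein was detected with fluorescent anti-GST, and scans were normalised with masliner. Each ungapped eight-base word, pooled with its reverse complement, received an E-score (modified Wilcoxon-Mann-Whitney statistic) from the Universal PBM Analysis Suite.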

UniProt P0CE41, sequence (P0CE41 whole entry): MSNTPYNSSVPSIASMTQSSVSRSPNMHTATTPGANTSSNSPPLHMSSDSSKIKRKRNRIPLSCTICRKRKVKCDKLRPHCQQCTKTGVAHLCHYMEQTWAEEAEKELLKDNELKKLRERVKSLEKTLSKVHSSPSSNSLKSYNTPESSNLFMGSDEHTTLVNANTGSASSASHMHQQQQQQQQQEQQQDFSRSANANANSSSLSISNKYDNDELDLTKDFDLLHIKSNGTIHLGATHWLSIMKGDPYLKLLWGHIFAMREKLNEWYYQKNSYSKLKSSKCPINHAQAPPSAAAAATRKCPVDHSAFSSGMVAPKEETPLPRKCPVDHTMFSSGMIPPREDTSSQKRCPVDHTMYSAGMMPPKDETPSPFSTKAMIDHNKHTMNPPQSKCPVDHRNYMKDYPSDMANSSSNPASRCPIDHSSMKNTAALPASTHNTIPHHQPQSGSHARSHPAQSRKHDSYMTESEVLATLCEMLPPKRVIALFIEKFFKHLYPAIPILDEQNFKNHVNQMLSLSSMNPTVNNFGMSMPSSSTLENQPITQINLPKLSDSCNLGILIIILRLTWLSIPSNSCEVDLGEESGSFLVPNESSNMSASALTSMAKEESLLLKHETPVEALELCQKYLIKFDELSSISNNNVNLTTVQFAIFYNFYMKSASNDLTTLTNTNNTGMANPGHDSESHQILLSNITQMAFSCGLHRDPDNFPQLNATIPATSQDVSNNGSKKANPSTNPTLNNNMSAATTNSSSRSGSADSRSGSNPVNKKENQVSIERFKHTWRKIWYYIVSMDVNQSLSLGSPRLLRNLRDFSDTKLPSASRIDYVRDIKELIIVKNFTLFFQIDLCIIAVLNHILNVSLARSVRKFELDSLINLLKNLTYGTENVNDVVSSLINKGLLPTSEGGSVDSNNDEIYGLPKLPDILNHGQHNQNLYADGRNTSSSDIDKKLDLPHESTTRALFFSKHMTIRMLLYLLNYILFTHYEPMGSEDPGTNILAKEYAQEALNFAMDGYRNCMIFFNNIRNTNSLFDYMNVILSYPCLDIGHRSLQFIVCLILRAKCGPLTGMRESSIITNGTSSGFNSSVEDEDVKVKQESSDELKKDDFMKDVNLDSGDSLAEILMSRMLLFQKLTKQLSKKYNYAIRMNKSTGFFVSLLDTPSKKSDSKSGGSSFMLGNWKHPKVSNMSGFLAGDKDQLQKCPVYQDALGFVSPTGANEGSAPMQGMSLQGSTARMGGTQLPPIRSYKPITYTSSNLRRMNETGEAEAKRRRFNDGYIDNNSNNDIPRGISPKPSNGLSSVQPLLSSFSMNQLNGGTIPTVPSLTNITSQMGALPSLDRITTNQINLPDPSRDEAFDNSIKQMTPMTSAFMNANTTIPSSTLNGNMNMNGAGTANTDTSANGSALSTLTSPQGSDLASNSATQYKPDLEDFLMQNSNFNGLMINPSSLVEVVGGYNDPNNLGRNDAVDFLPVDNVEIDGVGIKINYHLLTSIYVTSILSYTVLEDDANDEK

Sequence | PBM E-score
GCAGCAGA | -0.241
ATAATCCG | 0.304
GTTTTCTA | -0.0815
GCCCTGTA | -0.0673
AGTACTTC | 0.153
GAAAAAGA | -0.118
ATTCCGGA | 0.432
GCAAAAAA | 0.0316
CAGGAATC | -0.0613
TATAATGA | -0.104
AGAACCAG | -0.0575
GGTTCAAA | 0.197
ATTAAGTG | -0.15
CGCACCAG | 0.139
CGTATCCC | 0.0368
GCGCGGGA | 0.14
GCGCCACC | -0.115
ATTTCATC | -0.0227
AGGCCTTC | -0.14
CGACCTTC | 0.0839
ACCTGAGT | -0.125
AGATACAG | -0.0802
GATCTCGA | 0.102
ACTGGCAG | -0.124
GCATGTGA | -0.0553

Sequence | PBM E-score
GACATGCA | -0.125
ATGGGTCG | 0.165
GTCGCATA | -0.0856
CGACAGCA | 0.0127
AAACAGAA | -0.219
CCTCACTA | -0.0573
ATCGGCCC | 0.379
TATTAGGA | -0.123
CTCATACA | -0.0407
CGGCGTAA | 0.219
AATTCCAA | -0.121
CTTCCAGA | -0.303
AGGATCCC | -0.0107
GCTCCTAA | -0.207
ACACGCAG | -0.093
GGGATAAA | 0.148
CCCTCGCA | -0.105
GGTCAAAC | 0.0779
GCAACTGA | -0.102
GTCGGAAC | 0.306
GCTCAGAA | -0.104
ACTTTAAG | 0.0322
CCTTTTGC | -0.133
ACGCCTGC | -0.178
GCATCCGC | 0.0714

Sequence | PBM E-score
CCGCACGC | 0.0435
ACCTTACA | -0.22
CCCTTGTC | -0.104
GGAGATAA | 0.455
ATAGTGCC | 0.0688
GCGACGAA | 0.0485
ACGTAAAA | -0.0775
CCTTTAAA | -0.098
AAGCAATG | -0.0736
TAAGGCTA | -0.0505
AAGAGATT | 0.0278
CCGTTCGC | 0.14
AACTGACG | -0.0746
AGTTGAAG | -0.0891
CCGCAGCC | 0.107
CACATAAC | -0.142
ACACCCTA | -0.277
AAGCAACC | -0.0771
AACACATC | -0.0084
GGTTACTA | -0.0409
ATCCGACG | 0.333
AGAGCGCT | -0.105
AGGACGAT | -0.16
GGACGGTA | 0.197
AGGAACCG | 0.204

Sequence | PBM E-score
CACGCGAC | -0.0352
CGCGCATA | 0.193
ATCGGAAT | 0.363
CCTCTGGA | -0.0765
ACATAAGG | 0.0636
GCCTGTCA | -0.192
ATTTAAAC | -0.0807
AGTCACTG | -0.229
GGCTGGAC | -0.0206
CTCCTTAA | 0.015
ACGAACTC | 0.0738
ATATGTCG | -0.041
TAACCTTA | -0.0378
AATATACA | -0.113
GGTGGTGA | 0.107
CGTGTTCA | -0.0907
ACGCTAAT | 0.106
CAGGACGG | -0.137
ATCTCAAT | -0.137
ACAGTGCT | -0.138
CGCTCGCC | 0.0992
AGTCTCCA | -0.219
CTCCGCGA | 0.264
GCTCAAGA | -0.171
CTGTATTC | 0.0691

Sequence | PBM E-score
GGTGTGTA | -0.17
CCGATGAG | 0.23
CCGAATCC | 0.338
CCATTGCC | 0.0075
ACCATGAT | -0.0493
CTAGTCAA | -0.145
CGGCCAAG | 0.195
GGGTAGAC | 0.0798
TTGGCAAA | -0.148
CTCTTGCA | -0.0981
TAATGGCA | -0.151
ATCTCACC | 0.0112
ACATCCTC | -0.00209
ACCTTGAC | -0.0897
AAAGCGCC | 0.17
CGTTCCTA | -0.0471
AAATGAAT | -0.213
AGATAATA | -0.0137
AGAGAAAT | -0.0325
AAACGTGG | -0.16
GAGGTGCA | 0.0507
CGACTATA | -0.0251
CTATCCAC | -0.0523
AGCCCTAA | 0.0359
ACACACGA | -0.175

Sequence | PBM E-score
ACTGGATC | -0.0304
ATACTGCA | 0.175
CGCCACTC | 0.121
CAGATCAG | -0.123
CTTATATC | 0.21
AGGATAGA | -0.187
CCTAATCA | -0.0052
AGATCCCC | 0.087
CTCTTAAA | 0.0174
ATGGCATA | -0.145
AGTCTCGG | 0.303
AGCCCATG | -0.177
AAGGCTCT | -0.0279
CACTCACC | -0.0448
AGAAGAAT | -0.034
AGTCCCCC | -0.24
ATGTCCCC | 0.0493
ATTACTTC | 0.00222
CCTTTGGA | -0.215
TTCGAAAA | -0.15
AGGATGAG | -0.3
TAGCAGAA | -0.122
ATTTAGCA | -0.12
ACGTGGAA | -0.0358
CCTCTGGC | -0.0177

Sequence | PBM E-score
AGGGAGAC | -0.122
ATACTCCC | 0.115
AAGTAGTA | -0.111
ACCAAGAA | -0.117
CGCGAATC | -0.0268
GTGCTACA | -0.335
CATCTGCA | -0.0977
GGATCCCC | 0.249
CTTGGCCC | -0.219
GTTGCCCA | 0.00024
AGCTTGTG | -0.21
GGGCTAAC | -0.0168
AACTCATC | -0.0345
CGGCGTGC | 0.133
CCGTTCAA | 0.19
AACGGAAG | 0.186
GTAATCCA | 0.00769
AGAATCAA | -0.12
CCGAAACC | 0.298
ACTCCATG | 0.046
CACGCTAG | -0.217
AACACTGA | -0.0739

Source: the supplement of paper PMC3334620
